Source: the RNAGym collection of RNA variant scans (doi:10.7554/elife.90254)
Read counts are not given, so values of variants with three or more changes are uncertain.

B1: LINE1-mini (parent)
chain: GGCAGAGCUCAACACAGCGUGGCAAAGUGGCUGUGGCUAGACUGCC

Variants of: B1
Assay: self-cleavage, relative activity (ratio to wild type); higher = more cleavage; in vitro, sequencing; the parent is a self-cleaving ribozyme

Row | Variant | self-cleavage
1 | GGCAGAGCUCAACACAGCGUGGCAAAAUGGCUGUGCCUAGACCGCC [G27A G36C U43C] | 0.28
2 | GGCAGAGCUCAACACAGCGUGGCAAAAUGGCUGUGGGUAGACUACC [G27A C37G G44A] | 0.07
3 | GGCAGAGCUCAACACAGCGUGGCAAUGUGGCUGUCGCUAGCCUGCC [A26U G35C A41C] | 0.03
4 | GGCAGAGCUCAACACAGCGUGGCAAUGUGGCUAUUGCUAGACUGAC [A26U G33A G35U C45A] | 0.06
5 | GGCAGAGCUCAACACAGCGUGGCAAAAUGCCAGUGGCUACACUGCC [G27A G30C U32A G40C] | 0.03
6 | GGCAGAGCUCAACACAGCGUGGCAAAAUGGCUGCGGCUAGACUUCC [G27A U34C G44U] | 0.09
7 | GGCAGAGCUCAACACAGCGUGGCAAUGUGGGUGUUGCUAGACUGCU [A26U C31G G35U C46U] | 0.02
8 | GGCAGAGCUCAACACAGCGUGGCAAGGUGUCUUUGGCUAGACUGCC [A26G G30U G33U] | 0.07
9 | GGCAGAGCUCAACACAGCGUGGCAAUGUGUCUGUGGCUAGACUGAC [A26U G30U C45A] | 0.27
10 | GGCAGAGCUCAACACAGCGUGGCAAUGUGGUUGUGGCUACACUGCC [A26U C31U G40C] | 0.02
11 | GGCAGAGCUCAACACAGCGUGGCAAAAUCGCUCUGGCUAGACUGCC [G27A G29C G33C] | 0.1
12 | GGCAGAGCUCAACACAGCGUGGCAAAAUGGCUGUGGUUAGAUUGCC [G27A C37U C42U] | 0.02
13 | GGCAGAGCUCAACACAGCGUGGCAAAAUGACUGUGGCUAGAGUGCC [G27A G30A C42G] | 0.01
14 | GGCAGAGCUCAACACAGCGUGGCAAUAUGGCUGUGGCUAGACUGGC [A26U G27A C45G] | 0.14
15 | GGCAGAGCUCAACACAGCGUGGCAAGGUGGCUGUAGCUAAGCUGCC [A26G G35A G40A A41G] | 0.02
16 | GGCAGAGCUCAACACAGCGUGGCAAUGUGCCUGUGGCUAGAGUGAC [A26U G30C C42G C45A] | 0.02
17 | GGCAGAGCUCAACACAGCGUGGCAAUCUGGCCGUGGCUAGACUGCC [A26U G27C U32C] | 0.03
18 | GGCAGAGCUCAACACAGCGUGGCAAAACGGCUGUGUCUAUACUGCC [G27A U28C G36U G40U] | 0.19
19 | GGCAGAGCUCAACACAGCGUGGCAAUUUGGCUGUGGAUAGACUGCC [A26U G27U C37A] | 0.09

Row | Variant | self-cleavage
20 | GGCAGAGCUCAACACAGCGUGGCAAGGGGGCUGUGGCUAGACUGGC [A26G U28G C45G] | 0.11
21 | GGCAGAGCUCAACACAGCGUGGCAAAAUUGCUGUGGCUAGACUGUC [G27A G29U C45U] | 2.6
22 | GGCAGAGCUCAACACAGCGUGGCAAUGUGGAUGUGGGUAGACUGCC [A26U C31A C37G] | 0.03
23 | GGCAGAGCUCAACACAGCGUGGCAAAAUGGCUGUGCCUAGACUUCC [G27A G36C G44U] | 0.02
24 | GGCAGAGCUCAACACAGCGUGGCAAAAUUGUUGUGGCUGGACUGCC [G27A G29U C31U A39G] | 0.01
25 | GGCAGAGCUCAACACAGCGUGGCAAUAUGGCUGUAGCUAGACUGCC [A26U G27A G35A] | 0.17
26 | GGCAGAGCUCAACACAGCGUGGCAAAAUGGCGGUGGCUAGGCUGCC [G27A U32G A41G] | 0.03
27 | GGCAGAGCUCAACACAGCGUGGCAAUGUAGCUAUGGCUAGACUGCC [A26U G29A G33A] | 0.01
28 | GGCAGAGCUCAACACAGCGUGGCAAAAUGGCUGUGGAUAGAGUGCC [G27A C37A C42G] | 0.01
29 | GGCAGAGCUCAACACAGCGUGGCAAUGUGGCCGUGUCUAUAUAGCC [A26U U32C G36U G40U C42U U43A] | 0.19
30 | GGCAGAGCUCAACACAGCGUGGCAAUGUGCCUCUGGCUAGACUGCC [A26U G30C G33C] | 0.29
31 | GGCAGAGCUCAACACAGCGUGGCAAUGUACAUGUGGCUAGACUGCC [A26U G29A G30C C31A] | 0.58
32 | GGCAGAGCUCAACACAGCGUGGCAAAAUGACCGUGGCUAGACUGCC [G27A G30A U32C] | 0.18
33 | GGCAGAGCUCAACACAGCGUGGCAAGGUGGCUGUCGCUAGACAACU [A26G G35C U43A G44A C46U] | 0.01
34 | GGCAGAGCUCAACACAGCGUGGCAAAAUUGCUGUGGCUAGACUGCG [G27A G29U C46G] | 0.5
35 | GGCAGAGCUCAACACAGCGUGGCAAUGAGGCUGUGACUAGACUGCC [A26U U28A G36A] | 0.36
36 | GGCAGAGCUCAACACAGCGUGGCAAGGAGGCUGUGGCUAUACUGCC [A26G U28A G40U] | 0.14
37 | GGCAGAGCUCAACACAGCGUGGCAAAAUGGCUCUGGGUAGACUGCC [G27A G33C C37G] | 0.02
38 | GGCAGAGCUCAACACAGCGUGGCAAGGUGGCUGUGGCUACACUGUC [A26G G40C C45U] | 0.04

Row | Variant | self-cleavage
39 | GGCAGAGCUCAACACAGCGUGGCAAAAGGGCAGUGGUUAGACUGCC [G27A U28G U32A C37U] | 0.12
40 | GGCAGAGCUCAACACAGCGUGGCAAAAUGGGUCUGGCUAGACUGCC [G27A C31G G33C] | 0.03
41 | GGCAGAGCUCAACACAGCGUGGCAAAAUGGCUAUGGCUCGACUGCC [G27A G33A A39C] | 0.05
42 | GGCAGAGCUCAACACAGCGUGGCAAAAUAGCUGUGGCUAGAUUACC [G27A G29A C42U G44A] | 0.15
43 | GGCAGAGCUCAACACAGCGUGGCAAUGUGGCUUUGGCUACACUGCC [A26U G33U G40C] | 0.02
44 | GGCAGAGCUCAACACAGCGUGGCAAAAUGGCAGUGGCUAGACUACC [G27A U32A G44A] | 0.09
45 | GGCAGAGCUCAACACAGCGUGGCAAGGUGGCUGGUGCUAGACUGCC [A26G U34G G35U] | 0.02
46 | GGCAGAGCUCAACACAGCGUGGCAAUGUGGCUGUGGCUAUACUGCU [A26U G40U C46U] | 0.05
47 | GGCAGAGCUCAACACAGCGUGGCAAUUUGGCUGUGGCUAGACUACC [A26U G27U G44A] | 1.83
48 | GGCAGAGCUCAACACAGCGUGGCAAUGUGGUAGUGGCUAGACUGCC [A26U C31U U32A] | 0.05
49 | GGCAGAGCUCAACACAGCGUGGCAAGGUGGCUAUGGGUAGACUGCC [A26G G33A C37G] | 0.02
50 | GGCAGAGCUCAACACAGCGUGGCAAAAUGGCUGUGGCUAGACAGAC [G27A U43A C45A] | 0.04
51 | GGCAGAGCUCAACACAGCGUGGCAAUGUGGUUGUGGCUAGAAUUCC [A26U C31U C42A G44U] | 0.07
52 | GGCAGAGCUCAACACAGCGUGGCAAAAUUUCUGUGGCUAGCCUGCC [G27A G29U G30U A41C] | 0.09
53 | GGCAGAGCUCAACACAGCGUGGCAAAAGGGCUGCGGCUAGACCGCC [G27A U28G U34C U43C] | 0.03
54 | GGCAGAGCUCAACACAGCGUGGCAAGGUGGCGGUGGCUAGACCGCC [A26G U32G U43C] | 0.15
55 | GGCAGAGCUCAACACAGCGUGGCAAUGUGGCUGGGGCUAGCCUGCG [A26U U34G A41C C46G] | 0.01
56 | GGCAGAGCUCAACACAGCGUGGCAAUUUCGCUGUGGCUAGACCGCC [A26U G27U G29C U43C] | 0.02
